# According to the supplement of paper PMC10126150:
# Values marked as one replicate rest on one cluster of the flow cell; about a third of the high ones do not repeat.
# System: ATP
# Assay: switch fluorescence ratio, 500 uM ATP over buffer (Cy3 cluster intensity, sum of 5 cycles each) (fold (ratio)); higher = stronger signal-on switching upon ATP binding; sequences stand for … in TCGTCGGCAGCGTCAGATGTGTATAAGAGACAGTTTTTTTTTTTTTTTTTTTTTTTTT…TC
# Conditions: aptamer strand: ATP DNA aptamer (quencher-CACCTGGGGGAGTATTGCGGAGGAAGG + anchor), 100 nM annealed; ATP concentration: 500 uM; one replicate
# Outline: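 The quencher-labelled ATP aptamer, at 100 nM, was annealed to Cy3-labelled switching-strand clusters on a modified Illumina MiSeq flow-cell. The clusters were imaged in selection buffer, then after 15 min with 500 uM ATP at 22 °C, and this buffer/ATP cycle ran five times with NaOH stripping and re-annealing between runs. Per-cluster fluorescence ratios, summed target-cycle over summed buffer-cycle Cy3 intensity, were averaged per switch-domain sequence. Clusters outside 100-1000 RFU were excluded.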
# 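Also: ATP exposure 15 min at 22 °C before imaging.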
row,Sequence,switch fluorescence ratio
1,TCCGTATTCT,1.04
2,AAACGTATAT,1.04
3,TCTGGGAAAT,1.06
4,TTTTACATGG,0.956
5,CAGTTCATC,0.982
6,CACCTTACTG,1.27
7,CTTCCACGAC,2.66
8,GAGACCCATA,1.55
9,AATGTTTTAT,0.992
10,TTGCTTACT,1.14
11,CTGCTAAAA,0.974
12,TGAGTGTCTC,1.03
13,TAGTCTT,0.965
14,GAAACTCATG,0.995
15,AGGCCTGAAG,0.992
16,CAGGTCGCAT,1.06
17,AGTATGTGGC,1.05
18,GTGCGCACCA,0.996
19,TTGGTCTTAT,0.984
20,ATGGCGTCGT,1.03
21,AACCGGGGCA,1.05
22,TGGGTTTCAA,0.953
23,TCGTCCCCTC,1.11

row,Sequence,switch fluorescence ratio
1,GTTCCTGGGA,1.04
2,GACGGCTTT,0.96
3,TGAATCGCTG,1.02
4,ATCGAACTGG,0.97
5,ATGTCCCAGA,0.999
6,GACGTTATCA,1.02
7,ATGCATACTA,1.05
8,CTAATGAAGT,1.03
9,TGTACCATCG,1.04
10,TGAAGAATAA,1.07
11,TAAGTCTTAC,1.08
12,TGTTGTACTG,1.1
13,GATTACTGTT,1.08
14,CTGGCTAGAC,1.73
15,CCATTATCGA,1.02
16,CGTTGCATAG,1.12
17,TCCGGCGCGG,2.93
18,CACCCGGTGG,1.12
19,CTCATATGAG,1.04
20,CAGTAACCTG,1.03
21,TTACAGAGTG,1.02
22,ATCCAATATA,0.991
23,TTCGCATTCG,1.55

row,Sequence,switch fluorescence ratio
1,GCTATGGCCG,1.04
2,ATAGGCGGG,1.04
3,ATCGGAACCC,0.988
4,AAAGCACCAA,1.07
5,GAAGGCGGGT,0.925
6,ATCTCACCGA,1.02
7,GCTAGTCGAA,0.946
8,GTAACCTTT,1.04
9,CGGCAACGAG,1
10,AAAAAAGAGG,1.01
11,CGAATAAGAT,1.02
12,ACAGATGCCT,1.09
13,ATATGTGTAA,0.995
14,TTTCTCCAAA,1.12
15,TTGAGGCAAG,1.23
16,ACTTCTTGGG,0.965
17,AATAGACTTT,1
18,TCGGCTTCGG,1.03
19,AGTTAAGTAT,0.972
20,GCACATTATA,1.02
21,CATTACAGTC,1.06
22,CGCCAACAGC,1.37
23,AACAAAATA,1.02

row,Sequence,switch fluorescence ratio
1,GAACTACGGT,0.992
2,ATGGCTTAGG,0.974
3,CCCCATCCGA,1.08
4,AGCGTCGTGG,1
5,GGGGCGGGG,0.984
6,GCGTTTCTGT,0.983
7,CTCACAATAT,3.96
8,CAGAAACAGC,1.05
9,CTATAGGGGA,1.11
10,TAGCGAGTTA,1.01
11,CTGTTGGGGA,1.04
12,AGGAGGATTC,1.01
13,TAAGGTCCAC,1.03
14,ACAACTGTCG,1.1
15,TATAGATATC,1.02
16,CATTCCGCGG,1.99
17,GAATTCCGAT,1
18,TGTCCTTCTG,0.972
19,TGACTATAAA,0.992
20,TAGGCTTGCT,1.01
21,AACGATAACA,1.09
22,AAGACTGTAG,0.997
23,AATGAAGTG,0.987

row,Sequence,switch fluorescence ratio
1,CGGATTTGGT,1.02
2,AAGCTTTAAA,1.03
3,GGGATGATAA,1.01
4,ACTAACCGG,1.06
5,CGCCAAGTAT,1.09
6,GCAGCATACA,2.53
7,GACTTAGCCC,1.02
8,AGGTGAGGTC,1.05
9,TCAACATTTT,1.05
10,CATAAGGGTC,0.976
11,CCCCATGAAG,1.03
12,CACCGGTTAT,1.06
13,CATTGGTAGC,0.997
14,ATAGGAATTA,0.99
15,CATCACATAA,1.06
16,TTGATGGGCT,0.964
17,CAGTTGATTT,0.969
18,TGCCGTTGAT,1.01
19,GCTTAATTAT,0.95
20,AGATCCTGA,1.12
21,CCCATCCTTT,0.998
22,GCTTAGAGCA,0.993
23,TTGGTTAAGC,1.01

row,Sequence,switch fluorescence ratio
1,GATGATCCGG,1.01
2,GCGTAAATAG,1.31
3,CCTAAGTACC,1.31
4,GCCCGCTCCC,1.87
5,TGTTTCATAA,0.987
6,TGCCTAATCA,0.957
7,ATTACGTCTG,1.04
8,TATTAGTGTT,0.996
9,GAATTTACCA,1.08
10,AAAGGTATGT,1.04
11,GCCCACCCGA,1.04
12,GAAAGTGTAT,0.976
13,AAACCGTGTG,0.993
14,GGTATGTTAC,1.04
15,AGTATTAGAT,1.04
16,CCAGTCCGTT,1.03
17,TGATGTTCGG,1
18,ATCAGTGGGA,0.989
19,ATCGACTTAC,1.39
20,CTGCTAGTT,0.956
21,GGGGTTGAT,0.987
22,TCTGGATA,1.06
23,TGCATAGCCC,0.988

row,Sequence,switch fluorescence ratio
1,GCTTCCCAGT,1.13
2,ATTAGTGAGG,1.01
3,TTTTGGGCTA,0.986
4,CAGACGCTTG,1.01
5,CTCTCGAGCT,1.05
6,GTAAGTGCGT,1.06
7,ATATGGCCCT,0.989
8,TCTACCTCTA,1.05
9,GTTTCCATGT,1.01
10,CGCGACCCGA,1.01
11,AGCCGAGGGG,1.01
12,CGTGTTGCCT,0.998
13,ATACATGCCA,1.03
14,GGGATACAAA,0.982
15,CATCCTACAG,1.01
16,ATATGACGGG,1.03
17,ATGAACAAAC,1.05
18,ACATAATCAT,1
19,TCACACTGGA,0.924
